According to PubChem BioAssay AID504832 (National Center for Advancing Translational Sciences (NCATS), 2011):
Among all 310,000 compounds or so, about 18,000 (5.8%) were called active. The inconclusive results got no clear call from the source; some entries with a clear call stand among them for comparison. The call rests on the fitted dose curve; in most records, active means well fitted inhibition curve with a large enough effect; inconclusive means small, poorly fitted or top-dose-only effect, or another doubt; inactive means no such curve, though single readings can be large or run the other way. No potency is given beside an inconclusive call; the fits are too rough.

Assay: Primary qHTS for delayed death inhibitors of the malarial parasite plastid, 48 hour incubation
Details: P. falciparum luciferase growth in erythrocytes; series mostly up to 28.7 µM
Procedure, shortened: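 Compounds are pin-transferred into medium, infected erythrocytes (2% hematocrit, 0.1% parasitemia final) are added, and plates sit one parasite generation at 37 C in 5% CO2. Detection reagent is then added and luminescence measured.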
Potency means the concentration at half of the fitted maximal effect; tags describe the fitted curve by direction and shape.

SMILES	Potency
Brc1ccccc1C1CC(c2ccccc2)=Nc2ccccc2N1 (stereo unspecified)	inactive
Cc1cccc(C2NC(c3cccc(C)c3)C([N+](=O)[O-])C(C)(C)C2[N+](=O)[O-])c1 (stereo unspecified)	inconclusive [inhibitor, single point]
COc1cc(NC(=O)COC(=O)CO/N=C(\C)c2ccc3c(c2)OCO3)cc(OC)c1OC	inactive
c1ccc(-n2ncc3c(NCc4cccs4)ncnc32)cc1	inactive
COc1ccc2c(Cl)c(-c3nnc(SCC(=O)c4ccccc4)n3C)sc2c1	inconclusive [inhibitor, partial curve, poor fit]
COc1cc(NC(=O)c2cccs2)ccc1NC(=O)c1ccccc1Cl	inactive
O=C1N(Cc2cccc(Cl)c2)C[C@@H]2C[C@@H](c3ccsc3)N3CCC[C@@]123	active: 8.28 µM
CC(C)(C)c1cccc(Cn2nnc3ccccc32)c1O	active: 9.28 µM
Cc1cc(C)nc(NS(=O)(=O)c2ccc(NC(=O)C(C)Oc3ccccc3F)cc2)n1 (stereo unspecified)	inconclusive [inhibitor, single point]
Cc1noc(C(C)C)c1C(=O)Nc1ccc(-c2nnc3n2CCCCC3)cc1	inconclusive [inhibitor, single point]
CCOC(=O)C1=C(C)NC(=S)N(C(C)=O)C1c1ccc(Cl)cc1 (stereo unspecified)	inconclusive [inhibitor, single point]
Brc1cc2c(cc1CSc1ncccn1)OCO2	inconclusive [inhibitor, single point]
COc1ccccc1Oc1ccnc2cc(Cl)ccc12	inconclusive [inhibitor, single point]
Cc1ccc2[nH]c3c(N4CCCCCC4)ncnc3c2c1	active: 2.62 µM
O=C(Nc1ccc(F)cc1)C1CCN(S(=O)(=O)c2cccs2)CC1	inconclusive [inhibitor, full curve]
Nc1c(Cl)cc(-c2csc(N3CCCC3c3nc4cc(Cl)c(Cl)cc4n3CCOCCO)n2)cc1Cl (stereo unspecified)	inconclusive [inhibitor, single point]
Brc1ccc(-c2c(-c3ccsc3)sc3ccccc23)cn1	inconclusive [inhibitor, single point]
CCc1cccc(C)c1NC(=O)CO/N=C(\C)c1cc2ccccc2o1	inconclusive [inhibitor, partial curve, poor fit]
COc1ccc(S(=O)(=O)N2CCCC2CNC(=O)C(=O)NCCc2ccccc2)cc1 (stereo unspecified)	inconclusive [inhibitor, single point]
Cc1ccccc1NS(=O)(=O)c1cc(C(=O)NCc2ccncc2)ccc1Cl	inactive
CC(=O)N1CCc2cc(S(=O)(=O)NCc3ccc(C)cc3)ccc21	inactive
O=C(N/N=C\c1ccc(-c2ccccc2[N+](=O)[O-])o1)C1COc2cc3ccccc3cc2O1 (stereo unspecified)	inconclusive [inhibitor, partial curve]
CC(CNC(=O)CCC(=O)N1CCOc2ccc(Cl)cc21)c1ccccc1 (stereo unspecified)	inconclusive [inhibitor, full curve, poor fit]

SMILES	Potency
C#Cc1cccc(C(=O)N2CCCC(Nc3cccc(F)c3)C2)c1 (stereo unspecified)	inactive
COc1ccc2nc3oc(C(=O)N4CC(C)CC(C)C4)cc3cc2c1 (stereo unspecified)	inconclusive [inhibitor, partial curve]
O=C(NCc1ccncc1)c1ccc(Br)cc1	inactive
COc1ccc(CN2CCc3c([nH]c4ccccc34)C2)cc1Br	inconclusive [inhibitor, single point]
COc1ccccc1C/C(N)=N/OC(=O)c1ccc2c(c1)OCO2	inconclusive [inhibitor, partial curve]
Fc1ccc(-c2cnc(-c3cccs3)o2)cc1	inactive
CN1CCOC(c2ccccc2)c2ccccc2C1 (stereo unspecified)	inactive
COc1ccc(NP(=O)(Oc2cccc(C)c2)Oc2cccc(C)c2)cc1OC	inconclusive [inhibitor, partial curve]
Cc1ccc(OCC(=O)N2N=C(c3ccc(Cl)cc3)CC2c2ccco2)c([N+](=O)[O-])n1 (stereo unspecified)	inconclusive [inhibitor, single point]
CCc1nnc(NC(=O)Cc2ccc(OC)cc2)s1	inactive
COc1cnn(-c2ccccc2)c(=O)c1SCc1ccc(Cl)cc1Cl	inconclusive [inhibitor, single point]
Cc1ccc(-c2nc3ccccc3o2)cc1NC(=S)NC(=O)c1cccs1	inactive
N#Cc1nc(N)nc(N(c2ccccc2)c2ccccc2)n1	inconclusive [inhibitor, partial curve, poor fit]
COC(=O)C1=C(C)N=c2s/c(=C/c3cccs3)c(=O)n2C1c1cccs1 (stereo unspecified)	inconclusive [inhibitor, single point]
O=C(NC1CCCCC1)C(c1ccccc1)N(Cc1ccc2c(c1)OCO2)C(=O)c1cnsn1 (stereo unspecified)	active: 9.28 µM
CCc1ccccc1NC(=S)N(CCCN(C)C)Cc1cc2cc3c(cc2[nH]c1=O)OCO3	inconclusive [inhibitor, single point]
CCCCC1=CC2=CC(=O)C(C)(OC(=O)CC)C(=O)C2=CN1Cc1ccc(OC)cc1 (stereo unspecified)	inconclusive [inhibitor, single point]
CSc1nccc(-c2c(-c3ccc(Cl)cc3)noc2C)n1	inactive
COc1cccc(CNC(=O)CCC2CCCN(C(=O)c3cc(C)[nH]n3)C2)c1 (stereo unspecified)	inactive
COc1cc(O)c(CC=C(C)C)c(O)c1C(=O)CCc1ccc(O)cc1	active: 9.28 µM
Cc1c(-c2ccccc2)[nH]n2c(=O)c3c(nc12)CCCC3	inconclusive [inhibitor, full curve, poor fit]
CN1CCN(c2nc(-c3ccccc3)nc3c2oc2ccccc23)CC1	inconclusive [inhibitor, full curve, poor fit]
CCN(CC)c1cc(C)c2cc(NC(=O)c3cccs3)ccc2n1	inconclusive [inhibitor, full curve]
